Assay results: PubChem BioAssay AID1508642 (National Center for Advancing Translational Sciences (NCATS), 2021)
In all, about 43,000 compounds went through this assay and about 200 (0.47%) were called active. This list was built around the results that the source calls inconclusive (neither active nor inactive); the mix of calls is not that of the screen. The call rests on the fitted dose curve; in most records, active means well fitted cell-killing curve with a large enough effect; inconclusive means small, poorly fitted or top-dose-only effect, or effect the other way; inactive means flat fitted curve, though single readings scatter. Potencies of inconclusive entries are doubtful fits and often do not repeat.
On the % scale 0 is the no-effect control and ±100 the full control effect; potency means the concentration at half of the fitted maximal effect; tags describe the fitted curve by direction and shape.

Assay: Cell viability qHTS assay in S16 Pmp22-F2sN cells; further: nearly all actives have a fitted effect of over 65% in size
Conditions: S16 Pmp22-F2sN Schwann cells (luciferase reporters placed in the Pmp22 gene) viability, CellTiter-Glo, 24 h; activity change, negative = cytotoxicity: at 57.5 µM (top of the series)
In short: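 Rat S16 Schwann reporter line, 24 h treatment with library compounds delivered at 23 nL per well. Cell viability by CellTiter-Glo luminescence.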
For `CCOC(=O)c1[nH]c(C)c(CCC(=O)NCc2ccc(CC)cc2)c1C`, the “activity change, negative = cytotoxicity” value was inactive: -3.96%.
With `COc1ccc(Nc2cc(C(=O)NCCCN3CCN(c4ccccc4F)CC3)c3ccccc3n2)c(OC)c1` the Potency was inconclusive: 39.8 µM [cytotoxic, single point].
In the case of `Cc1ccc(S(=O)(=O)CC(=O)N2CCN(c3nc4c(F)cccc4s3)CC2)cc1`, the “activity change, negative = cytotoxicity” value is reported as inactive: -0.456%.
With `COc1ccc(-c2nc3scc(CCNS(=O)(=O)c4ccc5c(c4)OCCO5)n3n2)cc1` the Potency was inconclusive: 25.1 µM [cytotoxic, single point].
With `CCC(=O)C1=C(c2ccc(C)cc2)N(C(=O)CC)n2c(nnc2C2CCCCC2)S1` the Potency was inconclusive: 28.2 µM [cytotoxic, single point].
For `CC(=O)N1CCc2c(sc3c2c(=O)n(CCc2ccccc2)c(=O)n3Cc2ccccc2C)C1`, the Potency was inconclusive: 39.8 µM [cytotoxic, single point].
In the case of `COc1ccc(NC(=O)CSc2nc(-c3cccc(C)c3)[nH]c2-c2ccccc2)cc1OC`, the Potency is reported as inconclusive: 31.6 µM [cytotoxic, single point].
For `CC1=C(C(=O)Nc2ccc(Cl)cc2)C(c2ccccc2)n2ncc(C(=O)Nc3ccccc3)c2N1` (stereo not given), the Potency was inconclusive: 25.1 µM [cytotoxic, partial curve, poor fit].
With `CCCC1=Nc2cc(C(=O)NC3CCCCC3)ccc2Sc2ccc(C)cc21` the “activity change, negative = cytotoxicity” value was inactive: -34.2%.
For `O=S(=O)(c1ccccc1)n1nc(-c2ccc(Cl)cc2)nc1NCc1ccccc1`, the Potency was inconclusive: 31.6 µM [cytotoxic, single point].
In the case of `O=C(CSc1nc(=O)n(Cc2ccncc2)c2c1CCC2)Nc1cccc(F)c1`, the “activity change, negative = cytotoxicity” value is reported as inactive: 6.22%.
For `COc1ccc2sc(N(Cc3cccnc3)C(=O)CCc3ccccc3)nc2c1`, the Potency was inconclusive: 35.5 µM [cytotoxic, single point].
In the case of `Cc1cccc(N(C)S(=O)(=O)c2ccc3c(c2)NC(=O)CC(=O)N3)c1`, the Potency is reported as inconclusive: 20 µM [cytotoxic, partial curve, poor fit].
For `CCCN1CCCc2cc(CN(CCCN3CCOCC3)C(=O)Nc3ccc(Cl)c(Cl)c3)ccc21`, the “activity change, negative = cytotoxicity” value was inactive: -9.7%.
For `COc1cccc(Cn2c(=O)n(Cc3ccccc3)c(=O)c3c2c2cc(OC)ccc2n3C)c1`, the Potency was inconclusive: 3.98 µM [cytotoxic, partial curve, poor fit].
In the case of `Clc1ccc(CSc2nncn3c2cc2occc23)cc1`, the Potency is reported as inconclusive: 22.4 µM [cytotoxic, partial curve, poor fit].
In the case of `CCOC(=O)c1cc(-c2ccc(OC)c(S(=O)(=O)N3CCN(c4ccccc4)CC3)c2)on1`, the Potency is reported as inconclusive: 25.1 µM [cytotoxic, single point].
For `Cc1ccccc1OCC(=O)Nc1ccc2nc(SCC(=O)N3CCCC3)sc2c1`, the “activity change, negative = cytotoxicity” value was inactive: -0.152%.
For `O=C1Cc2cc(S(=O)(=O)Nc3ccc(OC(F)(F)F)cc3)cc3c2N1CCC3`, the Potency was inconclusive: 39.8 µM [cytotoxic, single point].
For `CCN(c1ccccc1)S(=O)(=O)c1ccc(NC(=O)c2nc(S(C)(=O)=O)ncc2Cl)cc1`, the Potency was active: 4.47 µM.
In the case of `CCOc1ccc(CCNC(=O)CCCn2c(=O)c3cccn3c3cccnc32)cc1`, the Potency is reported as inconclusive: 11.2 µM [rising, partial curve, poor fit].
In the case of `Cc1ccc(C)c(N2CCN(CCCNC(=O)c3ccc4nc(N5CCC(C)CC5)sc4c3)CC2)c1`, the Potency is reported as inconclusive: 0.501 µM [rising, full curve, poor fit].
In the case of `Cc1ccc(S(=O)(=O)N2CCCC2C(=O)Nc2ccc(Br)cc2)cc1` (stereo not given), the Potency is reported as inconclusive: 39.8 µM [cytotoxic, partial curve, poor fit].
For `O=C(C1CCCN(S(=O)(=O)c2cccc3nonc23)C1)N1CCN(c2cccc(C(F)(F)F)c2)CC1` (stereo not given), the Potency was inconclusive: 11.2 µM [cytotoxic, partial curve].
With `CCOc1ccc(C(=O)Nc2ccc(NC(=O)c3ccccc3)cc2)cc1Br` the Potency was inconclusive: 35.5 µM [cytotoxic, single point].
For `Cc1ccc(S(=O)(=O)N2CCCc3cc(NS(=O)(=O)c4ccccc4)ccc32)cc1`, the Potency was inconclusive: 31.6 µM [cytotoxic, partial curve, poor fit].
With `O=C(Nc1ccc(Cl)c(Cl)c1)N(Cc1c[nH]c2ccccc12)C1CCCCC1` the Potency was inconclusive: 2.51 µM [rising, full curve, poor fit].
In the case of `Cc1ccc(NS(=O)(=O)c2c(C)nc3sccn3c2=O)c(Cl)c1`, the “activity change, negative = cytotoxicity” value is reported as inactive: -2.07%.
In the case of `Cc1cccc(NC(=O)CCn2nc(C)c3c(C)n(-c4ccccc4)nc3c2=O)c1C`, the Potency is reported as inconclusive: 35.5 µM [cytotoxic, single point].
In the case of `CCC(Oc1ccccc1)C(=O)N1CCN(Cc2cc(=O)n3nc(-c4cccc(C)c4)sc3n2)CC1` (stereo not given), the Potency is reported as inconclusive: 39.8 µM [cytotoxic, single point].
In the case of `Cc1cc(N2CCN(C)CC2)nc2ccc(NC(=O)Nc3ccc(F)cc3F)cc12`, the Potency is reported as inconclusive: 39.8 µM [cytotoxic, single point].
In the case of `CCc1nn2c(=O)cc(COC(=O)c3ccc4c(c3)OCO4)nc2s1`, the Potency is reported as inconclusive: 12.6 µM [rising, partial curve].
For `CC(=O)N1CCc2cc(Br)cc(S(=O)(=O)NCCc3ccc(Cl)cc3)c21`, the “activity change, negative = cytotoxicity” value was inactive: 3.45%.
In the case of `CCc1ccccc1N1CC(c2nc3ccccc3n2CCOc2ccc(Cl)c(C)c2)CC1=O` (stereo not given), the Potency is reported as inconclusive: 39.8 µM [cytotoxic, single point].
With `CC(C)Oc1ccc(NC(=O)c2cc3ccccc3o2)cc1` the Potency was inconclusive: 39.8 µM [cytotoxic, single point].
With `Cc1sc2c(c1C)c(=O)n(Cc1ccccc1)c(=O)n2CC(=O)N(C)c1ccccc1` the Potency was inconclusive: 0.631 µM [cytotoxic, full curve, poor fit].
For `Cc1ccc(NC(=O)c2cc(S(=O)(=O)N3CCCCCC3)ccc2F)cc1F`, the Potency was inconclusive: 0.282 µM [rising, full curve, poor fit].
With `O=C(NCc1ccccc1Cl)C1CCCN(C(=O)c2cnn(-c3ccc(F)cc3)c2-n2cccc2)C1` (stereo not given) the Potency was inconclusive: 39.8 µM [cytotoxic, single point].
In the case of `CCC(C)NC(=O)c1ccc2c(c1)nc1n2CCCCC1` (stereo not given), the “activity change, negative = cytotoxicity” value is reported as inactive: 1.86%.
For `CCOc1cccc(C2CC(=O)Nc3cc4c(cc32)OCCO4)c1` (stereo not given), the Potency was inconclusive: 17.8 µM [cytotoxic, single point].
In the case of `CC(=O)c1ccc(NC(=O)c2nc(-c3ccc(C)cc3)n3c2CCCCC3)cc1`, the Potency is reported as inconclusive: 39.8 µM [cytotoxic, single point].
For `COc1ccc(CNc2nc3ccccc3c3nc(-c4ccccc4)nn23)cc1`, the Potency was inconclusive: 20 µM [rising, partial curve, poor fit].
In the case of `O=C(NCc1ccc(F)cc1)c1ccc2c(c1)nnn2C1CCCC1`, the Potency is reported as inconclusive: 25.1 µM [cytotoxic, partial curve].
For `CCOc1ccc(NC(=O)N2CCN(Cc3cc(=O)n4nc(-c5ccc(OC)cc5)sc4n3)CC2)cc1`, the Potency was inconclusive: 7.94 µM [cytotoxic, partial curve, poor fit].
In the case of `CCCn1c(=O)c2sccc2n2c(CCCC(=O)Nc3ccc(Oc4ccc(Cl)cc4)cc3)nnc12`, the Potency is reported as inconclusive: 35.5 µM [cytotoxic, single point].
In the case of `C=CCc1c(C)nc2nc(SCC(=O)Nc3ccc(C)c(C)c3)nn2c1C`, the Potency is reported as inconclusive: 3.98 µM [cytotoxic, full curve, poor fit].
For `COc1cccc(NC(=O)C2CCN(c3nnc(C)c4c(C)n(-c5ccccc5)nc34)CC2)c1`, the Potency was inconclusive: 35.5 µM [cytotoxic, single point].
In the case of `Cc1ccc(S(=O)(=O)N(CC(=O)NCCc2ccc(Cl)cc2)c2ccccc2C)cc1`, the Potency is reported as inconclusive: 28.2 µM [cytotoxic, single point].
In the case of `Cc1ccc2nc(-c3ccc(NC(=O)c4ccc(S(C)(=O)=O)cc4)cc3)sc2c1`, the “activity change, negative = cytotoxicity” value is reported as inactive: 5.92%.
In the case of `CSc1nn(Cc2cccc(C)c2)c(N)c1S(=O)(=O)c1ccccc1`, the Potency is reported as inconclusive: 28.2 µM [rising, partial curve, poor fit].
For `Cc1cccc(C(=O)N2c3nc(-c4ccco4)nn3C3(CCCCC3)[C@@H]3CCCC[C@@H]32)c1`, the “activity change, negative = cytotoxicity” value was inactive: 3.56%.
In the case of `Cc1cc(NC(=O)C2CCN(S(=O)(=O)c3cccc4nsnc34)CC2)ccc1Br`, the Potency is reported as inconclusive: 25.1 µM [rising, single point].
For `O=C(Nc1ccc(Br)cc1)c1ccc(F)c(S(=O)(=O)N2CCc3ccccc32)c1`, the Potency was inconclusive: 25.1 µM [cytotoxic, single point].
For `Cc1ccc(S(=O)(=O)C(CNC(=O)C(=O)NCc2ccccc2C)c2cccs2)cc1` (stereo not given), the “activity change, negative = cytotoxicity” value was inactive: -11%.
With `COc1ccc(NC(=O)C2CCN(c3ccc(Sc4ccc(C)cc4)nn3)CC2)c(OC)c1` the Potency was inconclusive: 28.2 µM [rising, single point].
In the case of `Cc1c(CCC(=O)N2CCCCC2)c(=O)oc2cc3occ(C(C)(C)C)c3cc12`, the Potency is reported as inconclusive: 31.6 µM [cytotoxic, single point].
For `CCCN(CCC)CC(O)Cn1cc(/C=C/C(=O)c2ccc(Br)cc2)c2ccccc21` (stereo not given), the Potency was inconclusive: 39.8 µM [cytotoxic, single point].
In the case of `Cc1nnc(SCC(=O)NCc2ccccc2Cl)c2nn(-c3ccccc3)c(C)c12`, the Potency is reported as inconclusive: 31.6 µM [cytotoxic, partial curve, poor fit].
For `CC1CCC(Nc2nc3c(-c4cccc(C(F)(F)F)c4)nnn3c3ccccc23)CC1` (stereo not given), the Potency was inconclusive: 8.91 µM [rising, partial curve, poor fit].
With `Cc1ccc(N(C)C(=O)C2CCN(S(=O)(=O)c3c(C)noc3/C=C/c3c(C)cc(C)cc3C)CC2)cc1` the Potency was inconclusive: 17.8 µM [cytotoxic, single point].
